Data as given in article PMC10726135.
Some of the results follow. At the low end of the ranking, values are background and their order means little. The protein was read in a cell extract, so binding may be indirect.

What follows are sequences tested against T1, HNF4alpha8 (COS-7 nuclear extract) (UniProt P41235-5) (assay: protein-binding microarray). Details: COS-7 nuclear extract on double-stranded Agilent 4x180k PBM; binding buffer, salt, pH and temperature not given; high values mean tight binding; double strand, one strand shown; sequences stand for … in …GCCTAGGGAGATTAGAGTATCGGTCGA.
T1 sequence: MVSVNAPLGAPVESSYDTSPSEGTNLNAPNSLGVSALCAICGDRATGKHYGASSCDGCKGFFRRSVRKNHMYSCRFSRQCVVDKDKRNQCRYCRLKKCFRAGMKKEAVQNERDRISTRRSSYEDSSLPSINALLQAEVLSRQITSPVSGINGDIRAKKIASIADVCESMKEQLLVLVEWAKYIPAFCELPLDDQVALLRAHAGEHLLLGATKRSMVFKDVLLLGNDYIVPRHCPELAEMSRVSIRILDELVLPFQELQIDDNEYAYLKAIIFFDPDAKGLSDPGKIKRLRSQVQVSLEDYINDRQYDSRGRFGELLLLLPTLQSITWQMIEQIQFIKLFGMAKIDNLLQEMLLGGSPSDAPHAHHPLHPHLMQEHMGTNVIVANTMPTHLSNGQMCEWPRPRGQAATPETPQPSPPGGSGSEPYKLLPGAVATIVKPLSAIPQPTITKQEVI

Row | Sequence | binding signal (log2 normalized intensity)
1 | AGAACCCATGCTCTTTGGCCTGGCATTTGA | 1.44
2 | ACAATGATGAAAGGAGCTTGGGAAGACAGA | -1.33
3 | GGATTATCACTGAATCGAGGCTATTCTGTA | -1.03
4 | CAAAAAGTTGGTTGGAGCTATGGGCAGAAA | 0.196
5 | AGCACCAGGGATAGCGCCCACACTGCCCAT | -1.26
6 | CCCCCACACCATTAGAGAACATGTACTTTG | 3.66
7 | ATCTGCCAACAGAGTCATCACAATAGGGAA | -1.32
8 | TTACCATGCCAGAACTTCTCATCTTATCTA | -1.33
9 | ACAGGACAAATCAAGTGAAATGCCAACGGC | -1.26
10 | TCTGCTTGCCATTAATGAAAACTGCACTTC | 2.38
11 | AGCGAGTTATCTGCATTCCAGCTCAATCAA | -1.09
12 | TAAAGGCTTTTGCAAGAAAACCAGCATGGT | -1.34
13 | CTGGGTTCAGTTACGGGGTGGTTTATCTGC | 0.702
14 | GATAAAAGTGAGCAATGCTGAGTATGCAGC | -1.09
15 | AGGGCCTCTCTTCTTGTAATCCCATTTCCC | 1.09
16 | CTAGGAGAGTGGACTCACAGCAGGAGGGCT | -1.48
17 | AGGTACAAACATACTTAGGATTTTTGTGCC | 0.618
18 | ACAATCTGAAGTCCCCTGTGCTTTGGCCAA | 1.38
19 | AAGGCAGATTTCTGTCTTTGATCTGCTATC | 0.517
20 | TATGCTTTTATTTAACTTCTGGGGGCAAGG | 2
21 | TGCTTATCAGTGTACCTGTCCCTACTCAAT | 0.884
22 | CAGGAGTGGGAGAAAGCTTTGGACTTTGGG | 5.45
23 | ATGTCCTTTGGAGTGCTTTCATCTTTGCGG | 0.566
24 | CTGGGGTCAATAGTTGTGTAAATAGCTCAG | 1.17
25 | CAAACAAGTCAATGAGCATTTCACAATTCG | -1.2

Row | Sequence | binding signal (log2 normalized intensity)
26 | TCTCTTTGTTGACATCTGCTTCCAAAGAGC | 0.456
27 | GCAGCGAGGACAACCAGAGGTCACTTTTAT | 3.02
28 | CAATCCTGGAGAAGGAGCACCAATGACCTT | 4.02
29 | CGATATTAATGGTGACCCCTCAGTTTTTCT | 3.38
30 | TGGCCTGGGAACTTAGCGATTTGGAACCCA | 1.34
31 | TTGCCCTTTCCTAGACGTAAGACAACATCT | 1.12
32 | GCTGACTGGTTGGAATTCCAGTGTTCACAT | 1.73
33 | GGAGGCTGAGGTGGAAGGATCACCTGAGTC | -0.947
34 | GCGGCGCTGACCCCGGGAGCAGCATGGCCC | 2.54
35 | TGCATAATGGAGCAAAGGTCATCCTGGGCT | 5.12
36 | AGAGCAATCATGGGCCCACAGATGATCAAA | -1
37 | ACAAAAACCAAAGGTCACTTCGCATTTCCA | 4.02
38 | TAAAAGGTCCAGAGTTCACTGCAGGCTGGG | 3.73
39 | GGCGCAGTCCTCTCTCGCGAGAGCCGAAGT | -1.33
40 | CAGGTCAAAAGTTCAAACTTTATTTGATGA | 3.81
41 | TAATCTTCCTTCGGGATTATGGTAGGCAGC | -0.922
42 | ACCTTTAAGCCTATAGTTTCTGTTTTGATC | 2.09
43 | TTTAAAGTATCCCATCCATTTCCCATCCCC | 3.52
44 | CAGTGTTTGCTTTAGATTTTCTCACTCTAA | -0.0636
45 | AGCATTGTGCTGAAAAGACTTCACAATCAA | -1.32
46 | GAAAGGGCAGAATCTAGGATAACTCTAGTG | -1.38
47 | TTGCAGGCTGATAGGCAGAAGGGACTAGCC | -1.3
48 | TGGACTCTGACCCATTCCTTCTCACCGGGT | 4.55
49 | GAACGGGTCAAGAGGGACAAAATGCCCAGG | -1.26
50 | TTAGGCTGATGCCCTTTGGATTTAGGCAGT | 3.84

Row | Sequence | binding signal (log2 normalized intensity)
51 | GCCTGAACAAACATGAGGGACTGGGAAGAG | -1.34
52 | TTTGAACATTTTAACACAGGACAAATCAAG | -0.565
53 | GAGACTGGAGAGACCAAAGGGTGAAATAGG | -0.126
54 | TGCTAGTAAGGGGAGGAGCTGAAACAGTCT | -1.23
55 | ACCCCACGGAGCTGCCTCACATGAGCTAGA | -1.07
56 | CCCAGACGCAGGCCTGCAAGCTCCTGGTTG | -1.23
57 | AACGACCCTTGCTCTGTTTTCTGACGCAAC | 0.868
58 | GGCCCAAGATAAAGGGACAGGGGTCATCAG | 3.62
59 | CTCTCTCTCCTAACTATGGTCACGCGGCCA | -1.07
60 | AGAAAGTGAGGAATGCAACCACACCAACAT | -1.33
61 | AAAGGTTGGGGGTGGGGAGGAAGCAAAATT | -1.29
62 | AGGCCGGGCCTCAAGGGAATCTGCTGTAAT | -1.14
63 | GGGTTAGGCCTTTAGAGGATTTACTTATAC | 0.821
64 | CTGGTGCTGCTACTTTAGCTGCCAGAGGTT | -0.834
65 | TCTTTTGACCTTTGCCTCATTCTTATTGCC | 5.61
66 | CGGCCTTTCCCGGCTGCCTAAGCACTTGGG | -1.35
67 | CTGAAGAATTTGGACTTTGCACTAAAAGCC | 7.57
68 | AGCATCCCTCGGGCCGGGAAACGCCCTCGG | 0.186
69 | CCTTGCCTTAAGAGCAGTCTGCTCAAGTCT | -1.34
70 | TGGCACACAGAGGACGTCAGGCAGAGAGGG | -1.2
71 | CTGATGGCTGCTTCACACAAACATCACCTA | -1.14
72 | CGGGTCACGTGCCGCTGCGGGTCACGTGTC | 2.04
73 | CCTCCAACTATGCTAAGAATGCGAACCATT | -1.35
74 | GTAAGTATGCTCACTGACCTCTGCCCTACT | 5.23
75 | ACTACCCCTGCCTAAACAAGGCAGACTTGG | -1.28

Row | Sequence | binding signal (log2 normalized intensity)
76 | AACTTCCTCCTCCTTGGCTCTCCCCACTTA | 2.5
77 | AAGGTCAGCAAGCCTGGAGTTCTGATGTTC | 0.91
78 | GACTTGACAAAGGTCATTCATGTGCAGGTT | 3.41
79 | AAGGAATTTACTGCAGTCAGGGGTTAGGCC | 0.321
80 | GCGCGGGGCGCCTCCCGGAGGACCCGACCG | -1.23
81 | CCCAAATGCAAACAGCAGCCACATTCCATG | -1.21
82 | TGCGCAAGTCCCAGAAGTTCTAAGGTGGGA | -0.458
83 | GGTGATGAGTTCTTATCTAGGTAAGTATAG | 1.18
84 | TAAATCAGAAGAAAAAGGTAAGGAGATAAG | -1.35
85 | TTGCCTTATTTGAACACAGTTCGAACAGTT | 0.739
86 | CCCGCTCCACTCCGGGCGATCCGGGCTCCG | -1.31
87 | AGGAAAGTCTCCCTCCCTTTGATCCCACAC | 3.2
88 | CAAGAATCTTGATTACTATAGGGCAAATGG | 1.72
89 | AGGTTTGATTTCAGCATGTTTAAATGCTGA | 1.54
90 | ATTTTGGAATGTCGCATAGCTCCTGGCTGG | -1.33
91 | GTTGCTGAAGGGCAGGGTTGGCTGTGGCAA | -0.542
92 | GATATTGGCCAAAGGGCACAAGAGGAATTG | 2.4
93 | AGGAATTTTAAAAGTATACTATATTTGTCC | 1.46
94 | ATGTTTGCCGACCTCCTGACTAAAGTTCAT | 3.42
95 | TTGCACTGCAAAGAAGTCAAACTTTGGACC | 7.1
96 | TTCTGCTGCATTCTATTGGTCAAAGTAAAT | 1.05
97 | AGGGATCTTTGCACTTGATGTTCCCCCTCC | 4.51
98 | GGGCAAGAAAGGGGTCAGCAAAAATAGCCA | -1.38
99 | ATCAGTATCCCAGTTCTGGATACTGATTAC | -1.27
100 | CACACATTAGCTTCCCGGCTGTCACAGCCT | -1.2

Row | Sequence | binding signal (log2 normalized intensity)
101 | AGGTTATTCTTTCCCCTCCCTTCCACCTTT | 3.91
102 | CTGAATGACCACATGCCCTCAGTACAGGGC | 1.14
103 | CCTGATTGGTCATACTTGACCCACAGCTAG | 2.44
104 | ATGCAAACACCTACATTCAAATCCTTGCTC | -1.28
105 | TTTGCCCTGTCAGTCTCTCAATGATTGACA | -1.2
106 | CCTCCCTCCATGCTGTAGATTGTGGAATGT | 1.54
107 | GCAAAGCCAATCTGCTTAAAGGCAAAGTCC | 4.54
108 | AATCCTCAAAAATGCTTTACAAGGTGGTTG | 1.44
109 | AGACTTTGACCTCTGCTAGGTTTGGGTAAG | 6.12
110 | CGCATCTGAAGATAAGAGAAGTTGCTCTTT | 2.63
111 | TCTCACTGGATGTGTACCTCATCTTCTTTC | 1.25
112 | GGTTGGGGGTGGCTAATTACATCCAGAGTG | -0.357
113 | AGTATCCGCCTTCACTCCCCTGACAGCATG | 1.87
114 | CCCGGAGCGGAGCATCCCTCGGGCCGGGAA | -1.23
115 | GTTCCAGTTATGTTCTCTGTACGGAAGGCC | 0.953
116 | CTGCTTCAGTTTTGCCATCAGCTCCCTCCC | 2.53
117 | AAATTGTGATAACCCCTATGTCTTCAGACT | 2.33
118 | TGTGTCTGTTTACCCACTTGGGGTTCTTGG | 1.47
119 | GGAAAATTACCAATGAGAAACCTCAAAGGT | -1.29
120 | CTTACGAAGATAAATCAGAAGAAAAAGGTA | -1.21
121 | GGAGATAAAGCAGAGGGCTGCTTGCAGGAG | -1.33
122 | AATCTTATTTTTACTATGTGGCATTTAGAA | 1.29
123 | AGCATAGAAGTAAGAAATCAGGAGCAAAGG | 0.165
124 | GACATAACACAGGTGACCTTTGCTCCGGTT | 7.92
125 | ATGCTTCAAATATTTGGATAATGTGCCCTT | 3.92

Row | Sequence | binding signal (log2 normalized intensity)
126 | CTTATCAGCCCCCATGTCAGGGAAGGTGCC | 2.56
127 | GGTGCTGATGTTAACACAAGTTATTACCGT | 0.581
128 | CTAACCCAAATGCAAATACCTATAGACCTG | -1.33
129 | TAAACATTCCCCTTTGTCTAAGCTAGTCAT | 0.549
130 | GACAGCCACACTTTAATGTGGAGTAGACTA | -1.07
131 | AGGTGACCTTTGCTCCGGTTCCCAATAAGT | 5.71
132 | TATGCTGGCAGTAGGGAGGTTTGGGGTTAT | 1.06
133 | ACCATTAGGGGGCAATTTCCCTGGTCGACC | 2.18
134 | GTGACTTGATCTTTGACTGGATTCTCAGCC | 1.84
135 | CTTCTCTTGTTTGTGTAACTGTGGGTTCTA | 2.53
136 | ATAGGTCAGAGGACACCCGGGGTGGGCATT | 0.429
137 | GCTTCAAAGGTCACTGTCCTAATTTTTTTT | 3.31
138 | AGGCAAGAGCTCAGAAGCCACCAGTGCAAA | -1.41
139 | GAATTGTGATAATAAATGTGTTTCATCAGT | 1.5
140 | ACTGAATCACACTACTGGCTTTTCTGGTTC | -1.21
141 | GGTTGCACTCTGGTGCCCTCTGAGTGTTTG | 2.54
142 | ATTGACTCTTCGTTTTCTTTTTAGTTTACA | 0.851
143 | TCAGTGGGCTAAACATCAAGACAGGTGAGA | -1.11
144 | CAGTGGAATCTACAGAATTCTCATGGAGGA | -1.02
145 | AATAATCTGGCATAGGAACAAAGGTTGGTG | 2.9
